Measured values from paper PMC9371921, “Strand annealing and motor driven activities of SMARCAL1 and ZRANB3 are stimulated by RAD51 and the paralog complex” (Nucleic Acids Research, 2022).
These are yes or no findings as the source states them, for the method shown. Some entries that bind do so weakly or less than the wild type. Tags and fused reporters may be left off the sequences shown. Values belong to the binder of their own block, whether it stands above or below them.

Key:
[1] = biological target: T1, RAD51 paralog complex RAD51B-RAD51C-RAD51D-XRCC2 (BCDX2) (human) (UniProt O15315+O43502+O75771+O43543); experiment: pull-down; anti-His antibody on Dynabeads Protein G, bound to purified BCDX2 (1 μg, bait); purified SMARCAL1 or ZRANB3 (1 μg, prey) in IP buffer (25 mM Tris-HCl pH 7.5, 100 mM NaCl, 3 mM EDTA, 0.5 mM DTT, BSA), 1 h at 4°C; silver staining or Western blot with anti-FLAG and anti-His; both purified
T1 sequence 1: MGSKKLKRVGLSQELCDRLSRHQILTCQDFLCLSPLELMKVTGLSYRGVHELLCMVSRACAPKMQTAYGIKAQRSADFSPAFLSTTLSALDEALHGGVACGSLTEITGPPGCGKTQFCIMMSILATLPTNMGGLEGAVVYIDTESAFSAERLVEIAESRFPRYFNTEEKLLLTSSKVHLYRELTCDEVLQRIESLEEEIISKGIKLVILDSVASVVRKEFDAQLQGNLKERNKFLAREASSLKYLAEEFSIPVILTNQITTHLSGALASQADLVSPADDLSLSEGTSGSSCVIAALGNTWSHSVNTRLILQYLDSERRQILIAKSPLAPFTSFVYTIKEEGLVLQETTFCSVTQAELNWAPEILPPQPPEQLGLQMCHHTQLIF
T1 sequence 2: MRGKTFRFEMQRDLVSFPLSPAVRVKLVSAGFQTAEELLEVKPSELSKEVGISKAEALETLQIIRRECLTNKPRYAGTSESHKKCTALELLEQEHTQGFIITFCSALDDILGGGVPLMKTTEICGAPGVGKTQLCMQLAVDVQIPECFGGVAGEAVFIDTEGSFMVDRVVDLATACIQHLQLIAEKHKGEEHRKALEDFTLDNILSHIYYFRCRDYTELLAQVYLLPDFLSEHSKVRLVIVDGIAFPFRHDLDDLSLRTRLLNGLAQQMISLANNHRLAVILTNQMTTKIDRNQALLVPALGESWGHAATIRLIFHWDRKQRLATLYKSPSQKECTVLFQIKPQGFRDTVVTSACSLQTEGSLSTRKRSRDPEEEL
T1 sequence 3: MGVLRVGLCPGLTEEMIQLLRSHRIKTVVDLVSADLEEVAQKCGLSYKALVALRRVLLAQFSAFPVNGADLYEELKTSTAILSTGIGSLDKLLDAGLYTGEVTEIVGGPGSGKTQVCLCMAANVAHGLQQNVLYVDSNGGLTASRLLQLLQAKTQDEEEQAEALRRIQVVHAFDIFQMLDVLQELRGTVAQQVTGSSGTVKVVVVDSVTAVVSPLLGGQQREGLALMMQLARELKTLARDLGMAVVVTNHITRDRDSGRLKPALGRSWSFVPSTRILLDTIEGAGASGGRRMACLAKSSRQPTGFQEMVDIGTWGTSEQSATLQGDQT
T1 sequence 4: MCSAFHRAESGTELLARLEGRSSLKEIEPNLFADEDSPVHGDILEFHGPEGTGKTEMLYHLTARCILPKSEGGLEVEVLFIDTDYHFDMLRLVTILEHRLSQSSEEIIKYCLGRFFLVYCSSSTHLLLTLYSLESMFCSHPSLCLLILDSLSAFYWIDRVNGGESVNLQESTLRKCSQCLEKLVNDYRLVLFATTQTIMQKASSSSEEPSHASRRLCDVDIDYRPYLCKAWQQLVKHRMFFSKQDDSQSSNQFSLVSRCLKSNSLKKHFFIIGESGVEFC

FLAG-ZRANB3 = biological target: T2, FLAG-ZRANB3 (human, UniProt Q5FWF4 1-1079); experiment: mass photometry; 2 μl (50 nM) protein solution added into 18 μl protein elution buffer; movie recorded for 1 min; Refeyn 2MP mass photometer, NativeMark size marker; both purified
T2 construct: also called ZRANB3 WT
T2 sequence (looked up): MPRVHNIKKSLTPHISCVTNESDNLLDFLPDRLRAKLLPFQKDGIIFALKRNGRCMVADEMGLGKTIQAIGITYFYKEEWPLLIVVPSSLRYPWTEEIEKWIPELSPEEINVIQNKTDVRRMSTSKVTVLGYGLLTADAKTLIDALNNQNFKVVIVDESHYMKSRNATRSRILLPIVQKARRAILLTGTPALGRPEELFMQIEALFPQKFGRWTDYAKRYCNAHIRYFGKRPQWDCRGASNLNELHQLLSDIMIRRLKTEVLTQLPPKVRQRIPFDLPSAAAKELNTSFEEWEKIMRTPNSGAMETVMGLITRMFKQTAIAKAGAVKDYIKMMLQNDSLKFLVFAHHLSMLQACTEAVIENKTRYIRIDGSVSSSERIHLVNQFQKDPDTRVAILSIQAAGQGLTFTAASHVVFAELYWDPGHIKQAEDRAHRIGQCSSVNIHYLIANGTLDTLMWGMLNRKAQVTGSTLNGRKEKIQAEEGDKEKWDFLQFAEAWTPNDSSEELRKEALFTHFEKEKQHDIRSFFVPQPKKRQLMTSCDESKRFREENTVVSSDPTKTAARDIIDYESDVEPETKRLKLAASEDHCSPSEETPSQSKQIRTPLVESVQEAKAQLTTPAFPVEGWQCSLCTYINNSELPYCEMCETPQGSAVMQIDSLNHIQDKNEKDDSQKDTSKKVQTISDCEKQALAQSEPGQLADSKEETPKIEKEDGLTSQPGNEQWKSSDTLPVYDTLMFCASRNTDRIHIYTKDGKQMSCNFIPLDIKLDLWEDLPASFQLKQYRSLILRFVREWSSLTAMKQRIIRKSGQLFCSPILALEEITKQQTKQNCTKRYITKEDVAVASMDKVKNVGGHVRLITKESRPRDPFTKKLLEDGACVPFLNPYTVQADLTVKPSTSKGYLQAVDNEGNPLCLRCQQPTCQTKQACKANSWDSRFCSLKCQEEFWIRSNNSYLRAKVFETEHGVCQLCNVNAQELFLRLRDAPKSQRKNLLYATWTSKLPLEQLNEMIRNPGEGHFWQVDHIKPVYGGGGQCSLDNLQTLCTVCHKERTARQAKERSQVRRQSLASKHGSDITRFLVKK

binding [1]: binds
binding (FLAG-ZRANB3): binds weakly
B1: FLAG-ZRANB3 (enzyme, UniProt Q5FWF4 1-1079)
chain: T2 sequence (looked up)

binding [1]: binds
B2: FLAG-SMARCAL1 (enzyme, UniProt Q9NZC9 1-954)
chain: MSLPLTEEQRKKIEENRQKALARRAEKLLAEQHQRTSSGTSIAGNPFQAKQGPSQNFPRESCKPVSHGVIFKQQNLSSSSNADQRPHDSHSFQAKGIWKKPEEMPTACPGHSPRSQMALTGISPPLAQSPPEVPKQQLLSYELGQGHAQASPEIRFTPFANPTHKPLAKPKSSQETPAHSSGQPPRDAKLEAKTAKASPSGQNISYIHSSSESVTPRTEGRLQQKSGSSVQKGVNSQKGKCVRNGDRFQVLIGYNAELIAVFKTLPSKNYDPDTKTWNFSMNDYSALMKAAQSLPTVNLQPLEWAYGSSESPSTSSEGQAGLPSAPSLSFVKGRCMLISRAYFEADISYSQDLIALFKQMDSRRYDVKTRKWSFLLEEHSKLIAKVRCLPQVQLDPLPTTLTLAFASQLKKTSLSLTPDVPEADLSEVDPKLVSNLMPFQRAGVNFAIAKGGRLLLADDMGLGKTIQAICIAAFYRKEWPLLVVVPSSVRFTWEQAFLRWLPSLSPDCINVVVTGKDRLTAGLINIVSFDLLSKLEKQLKTPFKVVIIDESHFLKNSRTARCRAAMPVLKVAKRVILLSGTPAMSRPAELYTQIIAVKPTFFPQFHAFGLRYCDAKRMPWGWDYSGSSNLGELKLLLEEAVMLRRLKSDVLSQLPAKQRKIVVIAPGRINARTRAALDAAAKEMTTKDKTKQQQKDALILFFNRTAEAKIPSVIEYILDLLESGREKFLVFAHHKVVLDAITQELERKHVQHIRIDGSTSSAEREDLCQQFQLSERHAVAVLSITAANMGLTFSSADLVVFAELFWNPGVLIQAEDRVHRIGQTSSVGIHYLVAKGTADDYLWPLIQEKIKVLAEAGLSETNFSEMTESTDYLYKDPKQQKIYDLFQKSFEKEGSDMELLEAAESFDPGSASGTSGSSSQNMGDTLDESSLTASPQKKRRFEFFDNWDSFTSPL
